# Assay results: PubChem BioAssay (NCATS)
# This list was built around the results that the source calls inconclusive (neither active nor inactive); the mix of calls is not that of the screen. A potency beside an inconclusive call is a rough fit, not a confirmed value. Activity calls are given as the source filed them. Calls come from the whole dose curve; as a rule, active = well fitted inhibition curve with a large enough effect; inconclusive = small, poorly fitted or top-dose-only effect; inactive = flat fitted curve, though single readings scatter.
# Test system: Zika virus NS2B-NS3 protease (linked construct)
# Experiment: Confirmatory screen NINDS AMC qHTS for Zika virus inhibitors (AID 1347152); note: nearly all actives have a fitted effect of over 70% in size;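 for activity change, negative = inhibition: AMC fluorescence gain from cleaved Bz-Nle-KRR-AMC substrate over 15 min; top concentration of the series differs between compounds; 0% = no-inhibitor control and -100% = no-enzyme control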
# Conditions: Purified linked NS2B-NS3, AMC substrate fluorescence; series mostly up to 56.6 µM; activity change, negative = inhibition: at the top concentration
# Method in brief: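 In this dose-response qHTS, AMC release from 10 microM Bz-Nle-KRR-AMC by 1 nM linked protease is measured over 15 minutes (about 20% conversion) at pH 8.0. Percent inhibition is fitted to a 4-parameter Hill curve.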
# Potency is the fitted concentration of half-maximal effect; tags give direction and shape of the fitted curve.
SMILES,Potency,"activity change, negative = inhibition"
CN(C)[C@@H]1C(=O)C(C(N)=O)=C(O)[C@@]2(O)C(=O)C3=C(O)c4c(O)cccc4[C@@](C)(O)[C@H]3[C@H](O)[C@@H]12,"inconclusive: 12.1 µM [inhibitor, partial curve]",–
O=C(Nc1ccc(Br)cc1)c1cc(Br)cc(Br)c1O,active: 19.2 µM,–
N[C@@H](Cc1ccc(Oc2cc(I)c(O)c(I)c2)c(I)c1)C(=O)O,"inconclusive: 21.5 µM [inhibitor, partial curve]",–
Cc1cc(SCc2sc(-c3ccc(C(F)(F)F)c(F)c3)nc2C)ccc1OCC(=O)O,"inconclusive: 12.1 µM [inhibitor, partial curve]",–
Oc1ccc([C@H]2CNCc3c2ccc(O)c3O)cc1O,–,inactive: 13.3%
C[C@]12CC[C@@H]3c4ccc(OC(=O)N(CCCl)CCCl)cc4CC[C@H]3[C@@H]1CC[C@@H]2O,active: 21.5 µM,–
CN1C[C@H](CNC(=O)OCc2ccccc2)C[C@@H]2c3cccc4c3c(cn4C)C[C@H]21,–,inactive: -15%
